# Measurements from paper PMC4336329 (PLoS ONE, 2015).
# Out of some 310,000 compounds screened, about 2,200 (0.71%) showed an effect of 50% or more. The effect is printed as a negative number. This is one part of the list.
# Biological target: human ether-à-go-go-related gene (hERG) potassium channel (human, UniProt Q12809)
# Test: primary screen, population patch clamp on CHO cells stably expressing hERG
# human ether-à-go-go-related gene (hERG) potassium channel, sequence (Q12809 whole entry, looked up): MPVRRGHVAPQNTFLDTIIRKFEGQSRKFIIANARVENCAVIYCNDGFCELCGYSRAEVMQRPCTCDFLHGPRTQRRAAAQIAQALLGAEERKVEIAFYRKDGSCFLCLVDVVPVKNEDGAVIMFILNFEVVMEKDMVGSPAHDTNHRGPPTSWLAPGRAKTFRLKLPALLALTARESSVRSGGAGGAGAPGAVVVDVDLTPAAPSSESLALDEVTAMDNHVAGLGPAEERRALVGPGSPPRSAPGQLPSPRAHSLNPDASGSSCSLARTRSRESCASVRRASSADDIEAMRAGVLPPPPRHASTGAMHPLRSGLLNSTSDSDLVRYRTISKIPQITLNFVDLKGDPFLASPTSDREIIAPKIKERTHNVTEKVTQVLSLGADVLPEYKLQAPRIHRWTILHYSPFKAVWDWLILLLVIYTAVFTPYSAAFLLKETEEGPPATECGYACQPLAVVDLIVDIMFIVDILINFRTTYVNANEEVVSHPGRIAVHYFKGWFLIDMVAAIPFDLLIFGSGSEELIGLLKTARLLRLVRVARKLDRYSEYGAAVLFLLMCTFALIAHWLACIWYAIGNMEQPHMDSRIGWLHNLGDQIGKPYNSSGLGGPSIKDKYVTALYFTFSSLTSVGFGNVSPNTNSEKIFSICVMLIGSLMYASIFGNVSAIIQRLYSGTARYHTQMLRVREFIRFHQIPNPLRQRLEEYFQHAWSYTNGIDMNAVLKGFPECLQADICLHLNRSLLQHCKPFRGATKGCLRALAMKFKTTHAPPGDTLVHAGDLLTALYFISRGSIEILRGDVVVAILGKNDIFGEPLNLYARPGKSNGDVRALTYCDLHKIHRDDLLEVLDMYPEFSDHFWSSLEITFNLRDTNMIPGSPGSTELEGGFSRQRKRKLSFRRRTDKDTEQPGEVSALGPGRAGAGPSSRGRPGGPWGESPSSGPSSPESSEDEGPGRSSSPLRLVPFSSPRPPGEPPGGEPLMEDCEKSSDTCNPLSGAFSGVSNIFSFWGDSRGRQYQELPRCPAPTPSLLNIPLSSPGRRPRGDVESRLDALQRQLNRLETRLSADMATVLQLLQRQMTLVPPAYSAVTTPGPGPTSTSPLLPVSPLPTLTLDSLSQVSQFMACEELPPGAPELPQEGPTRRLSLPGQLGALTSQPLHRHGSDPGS
row,SMILES,"hERG current change (%, negative = inhibition) at 1uM [%]"
1,CCOC(=O)c1c(C)[nH]c(C(=O)N/N=C/c2cccc(OC)c2)c1C,4.57
2,CCS(=O)(=O)Nc1cccc(C2=NN(S(=O)(=O)c3ccc(F)cc3)C(c3cccs3)C2)c1 (stereo not shown),6.75
3,Cc1cc(Br)cn2cc(C(=O)O)nc12,14.4
4,COc1cccc(-c2nnc(N(C)C(=O)C3CCOC3)s2)c1 (stereo not shown),4.52
5,Cc1cccc(C)c1NC(=O)CNC(=O)Cc1c[nH]c2ccccc12,12
6,CCOC(=O)c1cc2occc2n1CC(=O)N1CCCc2ccccc21,7.02
7,O=C(CSc1nnc(-c2ccncc2)n1-c1ccccc1)NC1CC1,8.15
8,CCS(=O)(=O)N1CCCC(C(=O)NCCc2ccccc2)C1 (stereo not shown),-1.37
9,CC(NC(=O)NC(=O)c1ccc(Cl)cc1)c1ccccc1 (stereo not shown),16.6
10,CCN(CC)CCn1cnc2c([nH]c3cccc(OC)c32)c1=O,2.43
11,O=C(c1ccccc1[N+](=O)[O-])N1CCN(c2ccc(N3CCOCC3)nn2)CC1,15.1
12,CSCCC(NC(=O)/C(=C\c1ccc(Cl)cc1)NC(=O)c1ccccc1)C(=O)O (stereo not shown),23.2
13,COc1cc(C)c(C(C)C)cc1S(=O)(=O)NCCCn1ccnc1,-0.978
14,CCN(CC1COc2ccccc2O1)C(=O)c1ccc(Cl)c(S(=O)(=O)N2CC(C)OC(C)C2)c1 (stereo not shown),1.6
15,CN1CCN(CCCNC(=O)C2CCN(c3nnc(-n4cccc4)s3)CC2)CC1,15.3
16,COc1ccc(C(=O)OCC(=O)Nc2cccc(C(C)=O)c2)c(OC)c1OC,-3.86
17,COC(=O)c1ccc(CSc2nc3c(cnn3-c3ccc(C)c(C)c3)c(=O)[nH]2)o1,11.3
18,Cc1nnc(N/N=C/c2cccc(OCc3ccc(Cl)c(Cl)c3)c2)n1N.Cl,11.4
19,Cc1ccc(C=C2C(=O)c3ccccc3C2=O)s1,4.37
20,O=C(Nc1ccccc1N1CCN(C(=O)c2ccccc2)CC1)c1ccc(Cl)cc1,-7.21
21,CC(=O)OC(C(=O)NCc1ccc2c(c1)OCO2)c1ccccc1Cl (stereo not shown),22
22,COc1ccc(NS(=O)(=O)c2cccc(C(=O)NC3CCN(Cc4ccccc4)CC3)c2)cc1,-8.33

row,SMILES,"hERG current change (%, negative = inhibition) at 1uM [%]"
1,Nc1[nH]n(-c2ccccc2)c(=O)c1N=Nc1ccc2c(c1)OCCO2,12.1
2,Cc1cc(SCc2ccc(F)cc2)nc(=O)[nH]1,14.2
3,COc1ccc(S(=O)(=O)Nc2cc3c4c(c2)CCN4C(=O)CC3)cc1OC,0.339
4,O=C(COc1ccccc1)n1nc(-c2ccc(Cl)cc2)nc1NCc1ccco1,4.9
5,O=S(=O)(NCCc1ccncc1)c1cc(Br)ccc1F,2.96
6,Cc1ccc(S(=O)(=O)NCC(=O)OCC(=O)c2cc(C)n(-c3ccccc3)c2C)cc1,12.1
7,N#Cc1nc(COc2ccccc2)oc1N1CCC(Cc2ccccc2)CC1,12.6
8,O=C(Cc1ccc(F)cc1)N1CCC2(CC1)NCCc1[nH]cnc12,14.4
9,Cc1ccc(S(=O)(=O)N2CCC(C(=O)NCCCOC(C)C)CC2)cc1,12.9
10,CSc1ncccc1C(=O)OCc1ccc(C#N)cc1.Cl,12.1
11,Cc1ccc(C(=O)Nc2ccnc(-c3cccnc3)n2)cc1,13
12,N/C(=N\OC(=O)c1ccc(Cl)cc1Cl)c1ccncc1,9.54
13,COc1cccc2cc(C(=O)Nc3cc(Cl)ccc3N3CCOCC3)c(=O)oc12,15.7
14,CCN(CC)S(=O)(=O)c1ccc2c(c1)c(=O)c(C(=O)NCCN(C)CCc1ccccc1)cn2C,-44.7
15,COc1ccccc1NC(=S)NNC(=O)c1cc(C)n(C)n1,8.95
16,O=C(OCn1nnc2ccccc2c1=O)c1ccc(N2CCOCC2)c([N+](=O)[O-])c1,16.1
17,CCN(CC)CC(C)CNC(=O)CN1C(=O)CSc2ccc(S(=O)(=O)N3CCOCC3)cc21 (stereo not shown),-5.55
18,O=C(Nc1ccc(NC(=S)NC(=O)c2ccco2)cc1)c1ccccc1,9.07
19,CCOc1ccc2nc(NC(=O)CSCC(=O)Nc3cc(C)on3)sc2c1,17.9
20,COc1ccc(Cl)cc1-n1c(=S)sc2c(=O)[nH]c(SCC(=O)C(C)(C)C)nc21,16.6
21,CCCn1cnc2c(N)c(C)c(C)cc21,20.3
22,O=S1(=O)CCN2C(c3ccc4c(c3)CCCC4)=CSC2=N1,7.63

row,SMILES,"hERG current change (%, negative = inhibition) at 1uM [%]"
1,Cc1ccc([N+](=O)[O-])cc1NC(=O)CN(C(=O)c1ccccc1Cl)C1CCCCC1,8.05
2,O=C(CCS(=O)(=O)c1ccccc1)N1CCN(c2ccccc2)CC1,13
3,COc1cc(NC(=O)CS(=O)(=O)c2ccc(C)cc2)cc(OC)c1OC,6.95
4,CCCc1ccc2oc(C(=O)N3CCC(C(N)=O)(N4CCCCC4)CC3)c(C)c2c1,-1.55
5,O=C(c1cccs1)N(CC1CCCO1)c1nc(-c2ccccc2)cs1 (stereo not shown),11.8
6,C=CCN(C(=O)CNC(=O)c1ccco1)C(C(=O)NC1CCCC1)c1ccc(OC)cc1 (stereo not shown),17.9
7,COCCNC(=O)CCC(=O)NNc1nc2ccccc2c2nc(C)nn12,7.86
8,O=C(O)C(Oc1ccc2c(-c3ccccc3)cc(=O)oc2c1)c1ccccc1 (stereo not shown),9.07
9,CCCCOC(=O)Nc1nccs1,25.2
10,O=C1c2cccc(Sc3ccccc3)c2C(=O)c2c(Sc3ccccc3)cccc21,10.6
11,CC1(C)Oc2ccc(C(=O)N3CCc4ccccc43)cc2N(CC(=O)N2CCCC2)C1=O,7.47
12,CCN(c1ccccc1)S(=O)(=O)c1ccc(Cl)c(C(=O)NCCc2ccc(OC)cc2)c1,4.71
13,Cc1cc(C)n(CCNS(=O)(=O)c2ccc(Cl)cc2)n1,-3.7
14,O=C(N/N=C/c1cccs1)C(=O)Nc1cccc(Cl)c1,15.1
15,Cc1cc2c(=O)n(C)c(SCC(=O)Nc3ccccc3)nc2s1,12.8
16,CCc1c(C)[nH]c2nc3ccccc3n2c1=O,6.81
17,CCN(CC)c1ccc(NC(=O)Cn2cc3c(n2)CCC(C)C3)c(C)c1 (stereo not shown),4.09
18,CC(=O)OC1COC(n2ccc3cc([N+](=O)[O-])ccc32)C(OC(C)=O)C1OC(C)=O (stereo not shown),0.733
19,CN(CCO)C(=O)c1ccc(-c2nn(C)c(=O)c3ccccc23)cc1,6.22
20,COC(=O)c1sccc1NC(=O)c1ccc(OC)c([N+](=O)[O-])c1,7.04
21,COc1ccc(/C(C)=N/NC(=O)CNC(=O)C(c2ccccc2)c2ccccc2)c(OC)c1,13.6
22,Cc1ccc2nc(-c3ccc(NC(=O)c4cccnc4)cc3)oc2c1,12.8

row,SMILES,"hERG current change (%, negative = inhibition) at 1uM [%]"
1,COc1ccc(CNC(=O)N[C@H](C(=O)O)C(C)C)cc1OC,9.96
2,O=C1NC2(Nc3ccccc31)C(=O)Nc1ccccc12 (stereo not shown),16.7
3,Cc1ccc(OCC(=O)N2CCC(C)CC2)c([N+](=O)[O-])n1,6.04
4,C=CCN1C(=O)c2ccc(C(=O)Nc3ccccn3)cc2C1=O,10.7
5,CSc1ccccc1NC(=O)c1cc(-c2ccco2)on1,12.1
6,COc1ccccc1CC(=O)Nc1cccc2c1CCCC2,1.25
7,C/C(=N\NC(=O)CN1CCN(Cc2ccccc2)CC1)c1ccncc1,-3.1
8,COc1ccc2oc(C(=O)OC(C)C(=O)N(C)c3ccccc3)c(C)c2c1 (stereo not shown),2.56
9,CC(OC(=O)c1ccc(Cl)nc1)C(=O)NC1(C#N)CCCCC1 (stereo not shown),0.802
10,CCOC(=O)CN(c1ccccn1)S(=O)(=O)c1ccccc1,-7.75
11,Cc1cc(C(=O)CSc2nc(N)cc(=O)[nH]2)ccc1F,17.6
12,N#CN(CC(N)=O)c1nc(N2CCCCC2)nc(N2CCCCC2)n1,16
13,O=C(c1cccn(Cc2ccc(C(F)(F)F)cc2)c1=O)N1CCOCC1,13.8
14,CN(C)c1ccc(NC(=O)CCCc2ccccc2)cc1,4.45
15,O=C(Cc1cccs1)NCc1cccc(Br)c1,9.45
16,C[C@@]12CCC=C[C@H]1[C@H](c1ccc3ccccc3c1/C=C/c1ccccc1)N(Cc1ccccc1)C2=O,1.03
17,O=C(Nc1cccc(F)c1)Nc1cccc(Cl)c1,12.3
18,CCNC(=O)CCc1nc(-c2ccc(C(C)(C)C)cc2)no1,-13.4
19,Cc1cc(C)nc(N2CCCC(C(=O)NCCc3ccc(F)cc3)C2)n1 (stereo not shown),2.46
20,O=C(O)C1Cc2ccccc2CN1C(=O)CCl (stereo not shown),11.2
21,CC(C)(Oc1ccc(Cl)cc1)C(=O)N1CCC(C(N)=O)CC1,5.21
22,O=C(O)c1ccc(NC(=O)c2cccc(C(=O)Nc3ccc(C(=O)O)cc3)c2)cc1,15
